# Measured values reported in the supplement of paper PMC3334620.
# Over roughly 33,000 sequences, “E-score (-0.5 to 0.5)” has its median near -0.011; the highest 2% begin near 0.28. Some of the results follow.
# Molecular target: T1, Gcr1 (UniProt P07261)
# T1 sequence: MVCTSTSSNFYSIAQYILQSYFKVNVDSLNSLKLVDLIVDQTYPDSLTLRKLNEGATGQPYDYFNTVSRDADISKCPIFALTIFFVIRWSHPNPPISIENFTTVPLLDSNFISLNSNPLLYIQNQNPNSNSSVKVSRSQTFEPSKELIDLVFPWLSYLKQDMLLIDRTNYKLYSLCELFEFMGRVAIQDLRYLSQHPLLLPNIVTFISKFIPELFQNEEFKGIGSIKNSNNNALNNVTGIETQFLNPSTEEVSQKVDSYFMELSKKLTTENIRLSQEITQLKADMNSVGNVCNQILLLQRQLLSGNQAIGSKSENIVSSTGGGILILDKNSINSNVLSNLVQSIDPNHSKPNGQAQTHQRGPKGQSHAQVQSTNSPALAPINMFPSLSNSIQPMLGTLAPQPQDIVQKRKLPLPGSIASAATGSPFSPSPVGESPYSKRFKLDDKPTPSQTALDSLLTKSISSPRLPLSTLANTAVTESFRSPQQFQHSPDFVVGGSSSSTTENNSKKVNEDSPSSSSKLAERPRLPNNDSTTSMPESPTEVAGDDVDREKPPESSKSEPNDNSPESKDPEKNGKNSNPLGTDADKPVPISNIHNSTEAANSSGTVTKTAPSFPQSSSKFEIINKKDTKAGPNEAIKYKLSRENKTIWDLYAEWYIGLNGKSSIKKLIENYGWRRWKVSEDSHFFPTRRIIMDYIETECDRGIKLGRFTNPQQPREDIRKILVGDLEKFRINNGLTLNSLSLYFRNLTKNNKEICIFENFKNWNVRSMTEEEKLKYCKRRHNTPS
# Assay: PBM E-score (8-mer binding enrichment) (E-score (-0.5 to 0.5)); higher = stronger / more preferred TF binding; most listed sequences are background and not binding sites
# Details: protein concentration: 100 nM; construct: GST-full length
# Experimental: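 Universal 'all 10-mer' protein binding microarrays (Agilent AMADID 015681) probed with GST-tagged S. cerevisiae TFs (full-length or DBD) made by in vitro transcription/translation (PURExpress), about 100-200 nM. Bound TF was detected with fluorescent anti-GST. Each ungapped 8-mer (which stands for itself and its reverse complement) is scored by the PBM enrichment score (E-score), a modified Wilcoxon-Mann-Whitney statistic from -0.5 to +0.5, computed with the Universal PBM Analysis Suite. Scale: above 0.35 generally sequence-specific binding.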
row,Sequence,PBM E-score
1,ATATTGGC,0.15
2,CACCTGCG,-0.0735
3,GCATAAAA,-0.0293
4,AAGCACCT,0.106
5,CCGGGTGA,-0.0768
6,AAGTGCGT,0.00837
7,CTCGGCAG,0.11
8,TCAGGTCA,-0.241
9,ATGTGAGC,-0.164
10,AAGCTTTG,-0.142
11,AAGATAGC,-0.101
12,CGTCCCGC,-0.0165
13,AACGTTCG,-0.224
14,ACTCGTGA,-0.0087
15,ATGCAGTA,-0.0404
16,ACTTTAAT,0.0661
17,AACTTCCG,0.267
18,ATCCGCTG,0.0205
19,ACCGTCCC,-0.0913
20,CTTCTAGA,0.231
21,GAAAGAGA,-0.038
22,GTATTCAA,0.103
23,AACAGAAT,0.161
24,ACGGAGCG,0.0368
25,CTCTCCGA,0.00694

row,Sequence,PBM E-score
1,ACACTGCT,-0.245
2,GTACCCGA,0.0523
3,AGAAATAG,0.119
4,CTAAATCA,0.121
5,CATTTTGG,0.264
6,GATACACA,0.124
7,GTGGCATA,-0.106
8,AGTCGAAA,0.0193
9,CCTACATA,0.209
10,GGGTCTGA,-0.18
11,AGGTTCTG,0.094
12,TACTTGCA,0.00277
13,ACGGTACG,-0.104
14,ACTTCTAA,0.0859
15,GCCCGTCC,-0.184
16,ACTGAGAG,-0.0975
17,AGCGATTG,-0.0464
18,GAGAAGAA,0.0707
19,TGCCAGAA,0.249
20,ATATGCCG,-0.0206
21,AGTAGCTC,0.0884
22,GACAGTCA,-0.00968
23,TAGTTTCA,0.0381
24,GTAAATAA,0.0571
25,CACAGACG,-0.15

row,Sequence,PBM E-score
1,GACATAAA,0.121
2,GTCCTGTA,0.168
3,GTATCCTA,0.0709
4,AGGACATA,-0.0972
5,GGAACTCC,0.0709
6,ACTGGACT,0.134
7,CACCTCGG,0.0439
8,TACATGAA,0.0327
9,GTGTAAAC,0.0135
10,ATGTATCG,-0.0321
11,ATCAGGTG,-0.228
12,CTAAAGCA,-0.0648
13,AAGGCATC,0.0959
14,CGAGTGCG,-0.0321
15,AGAGACTC,-0.046
16,CTAGAGTC,-0.041
17,CTTCTTCC,0.0494
18,TGAGATCA,-0.0605
19,AGCCAACC,-0.129
20,AAGACGAC,-0.0134
21,ACGTTTGG,0.0916
22,ACACTGCA,-0.161
23,ACCGGGGA,0.0187
24,ATACTCAT,-0.0194
25,CGCGTCAG,-0.177

row,Sequence,PBM E-score
1,GAGAGGAA,0.128
2,AATCAAAT,0.0954
3,AGAAAGGA,-0.143
4,ATTTAACA,0.064
5,ACCAGAAC,0.235
6,AGGCAGGC,-0.103
7,AGGGTATG,-0.149
8,ATGGACAA,-0.0343
9,AACTGTGG,0.215
10,CGGAAAAA,0.265
11,ATTATCGC,0.052
12,CCAATTCC,-0.0267
13,CATTCAGA,-0.0501
14,ATCCGCTA,0.0146
15,ACACATGT,-0.0657
16,GCGTGTCC,0.0745
17,CATTAACG,-0.121
18,AAGAATCA,0.142
19,ACCTGGGC,-0.141
20,GGTTGAAC,-0.103
21,CCCCGGGG,0.00556
22,GAAGCACA,0.117
23,CAATCCCG,0.206
24,ATACCGTG,0.0206
25,ACTACTTG,0.113

row,Sequence,PBM E-score
1,ATTTCTAC,0.0933
2,GCACGTGA,-0.271
3,AACTTAAC,-0.0532
4,ACCCCGGA,-0.0354
5,TGTACACA,-0.0143
6,GCACTCAA,-0.0329
7,ATATCACG,-0.0835
8,CGCATAAA,0.0544
9,CCTGATTC,-0.0618
10,ATTAAGAC,-0.0955
11,CTGACAAA,0.143
12,CAACCACA,0.133
13,AAAGGATT,-0.161
14,ATACTGGA,0.373
15,AGCACCGA,0.24
16,AAAAGGCA,-0.163
17,AAAGTGCT,-0.043
18,AACGTACT,-0.107
19,TCCAATAA,0.13
20,ACACATCC,-0.00426
21,GACTGCAA,-0.102
22,ACATAGAC,-0.0117
23,CGCCCCGC,-0.0438
24,GGTGTTGA,-0.142
25,AAGGCAAT,-0.23

row,Sequence,PBM E-score
1,AAGCCCAG,0.0416
2,ATAGCCTG,-0.14
3,ACAGGGAA,-0.0504
4,AGCCCAGC,0.0981
5,AATTGTAA,0.0635
6,GAGATCTA,-0.214
7,CATATGAA,-0.143
8,GTACTCGA,0.0432
9,TGTTACAA,0.0822
10,ACGCTCGC,0.0255
11,AGAGTCTG,0.0715
12,GGAGCTAC,0.00703
13,AGCTAATC,-0.158
14,TAGCCAGA,0.162
15,GTCCACGA,-0.0295
16,CTTAAAGA,0.078
17,CATAACAG,-0.145
18,AGGAACGG,0.0392
19,CTTTGGTA,0.0434
20,ATTAACAC,-0.0815
21,GCCCACCA,0.133
22,AACTTGTA,0.182
23,CCCAAGCG,-0.0854
24,ATTTACCC,0.0556
25,GGAGTGTA,-0.218

row,Sequence,PBM E-score
1,ACCATAAA,0.0682
2,CCCAATAC,0.0106
3,AAGAACCC,0.274
4,TAGACGAA,0.179
5,AGAGTGCA,-0.073
6,GAGTGTCA,-0.0878
7,ACAGTGGA,0.274
8,CATAGCTC,-0.189
9,CGAGCGTA,-0.17
10,CGATGATA,-0.161
11,CAGGGTCC,0.21
12,CAGATTAC,-0.173
13,ACGATGTA,-0.187
14,TAAGACTA,0.0156
15,GAGAATCC,0.236
16,GAATTTGA,0.174
17,AACTCGAG,-0.112
18,GAAGGGAA,-0.178
19,AAAGATCG,-0.0554
20,CGTCTCAG,-0.0166
21,ACCTCTCC,-0.2
22,CTTAATAC,0.0397
